What was measured:
[1] = biological target: the molecule itself; assay: fluorescence intensity fluctuation (FIF) spectrometry; EphA2-eYFP in the plasma membrane of HEK293T cells, confocal imaging, hypo-osmotic medium, whole membrane; with 1200 nM Dimer 2
[2] = biological target: the molecule itself; assay: fluorescence intensity fluctuation (FIF) spectrometry; EphA2-eYFP in the plasma membrane of HEK293T cells, confocal imaging, hypo-osmotic medium, whole membrane, 15 x 15 pixel segments; no ligand
[3] = biological target: the molecule itself; assay: fluorescence intensity fluctuation (FIF) spectrometry; augmented FIF on the high-intensity puncta (SLIC algorithm), HEK293T cells; with m-ephrinA1
[4] = biological target: the molecule itself; assay: fluorescence intensity fluctuation (FIF) spectrometry; augmented FIF on the high-intensity puncta (SLIC algorithm), HEK293T cells; with Dimer 5

B1: EphA2-eYFP (receptor)
chain: [about 500 residues not shown]IGGVAVGVVLLLVLAGVGFFIHRRRKNQRARQSPEDVYFSKSEQLKPLKTYVDPHTYEDPNQAVLKFTTEIHPSCVTRQKVIGAGEFGEVYKGMLKTSSGKKEVPVAIKTLKAGYTEKQRVDFLGEAGIMGQFSHHNIIRLEGVISKYKPMMIITEYMENGALDKFLREKDGEFSVLQLVGMLRGIAAGMKYLANMNYVHRDLAARNILVNSNLVCKVSDFGLSRVLEDDPEATYTTSGGKIPIRWTAPEAISYRKFTSASDVWSFGIVMWEVMTYGERPYWELSNHEVMKAINDGFRLPTPMDCPSAIYQLMMQCWQQERARRPKFADIVSILDKLIRAPDSLKTLADFDPRVSIRLPSTSGSEGVPFRTVSEWLESIKMQQYTEHFMAAGYTAIEKVVQMTNDDIKRIGVRLPGHQKRIAYSLLGLKDQVNTVGIPI
notes: EphA2 receptor tyrosine kinase; also called receptor tyrosine kinase EphA2; source: HEK293T, transiently transfected (pcDNA3.1 (+)), in the plasma membrane of the cells; not shown: eYFP (via a 15 amino acid (GGS)5 flexible linker), C-terminal, kept
For B1, the “stoichiometry N” value [1] was > 2, the “stoichiometry N” value [2] was 2 and the “fold increase of the mode of the brightness distribution, puncta against whole membrane” value [3] was 2 fold. For the same protein, the “fold increase of the mode of the brightness distribution, puncta against whole membrane” value [4] was 6 fold.

— article PMC9512837, “The efficacy of receptor tyrosine kinase EphA2 autophosphorylation increases with EphA2 oligomer size” (The Journal of Biological Chemistry, 2022)
